For test [1], the target named is T1, GST-TrnSR (WT, without mCherry) (human, UniProt Q9Y5L0 1-923).
T1 construct: transportin-SR (TrnSR), human cDNA in pGEX-6p3; used in the LSPR experiment; also called GST-NTR; source: E. coli BL21, purified (GSH-Sepharose 4B); not shown: GST, N-terminal, kept
T1 sequence (looked up): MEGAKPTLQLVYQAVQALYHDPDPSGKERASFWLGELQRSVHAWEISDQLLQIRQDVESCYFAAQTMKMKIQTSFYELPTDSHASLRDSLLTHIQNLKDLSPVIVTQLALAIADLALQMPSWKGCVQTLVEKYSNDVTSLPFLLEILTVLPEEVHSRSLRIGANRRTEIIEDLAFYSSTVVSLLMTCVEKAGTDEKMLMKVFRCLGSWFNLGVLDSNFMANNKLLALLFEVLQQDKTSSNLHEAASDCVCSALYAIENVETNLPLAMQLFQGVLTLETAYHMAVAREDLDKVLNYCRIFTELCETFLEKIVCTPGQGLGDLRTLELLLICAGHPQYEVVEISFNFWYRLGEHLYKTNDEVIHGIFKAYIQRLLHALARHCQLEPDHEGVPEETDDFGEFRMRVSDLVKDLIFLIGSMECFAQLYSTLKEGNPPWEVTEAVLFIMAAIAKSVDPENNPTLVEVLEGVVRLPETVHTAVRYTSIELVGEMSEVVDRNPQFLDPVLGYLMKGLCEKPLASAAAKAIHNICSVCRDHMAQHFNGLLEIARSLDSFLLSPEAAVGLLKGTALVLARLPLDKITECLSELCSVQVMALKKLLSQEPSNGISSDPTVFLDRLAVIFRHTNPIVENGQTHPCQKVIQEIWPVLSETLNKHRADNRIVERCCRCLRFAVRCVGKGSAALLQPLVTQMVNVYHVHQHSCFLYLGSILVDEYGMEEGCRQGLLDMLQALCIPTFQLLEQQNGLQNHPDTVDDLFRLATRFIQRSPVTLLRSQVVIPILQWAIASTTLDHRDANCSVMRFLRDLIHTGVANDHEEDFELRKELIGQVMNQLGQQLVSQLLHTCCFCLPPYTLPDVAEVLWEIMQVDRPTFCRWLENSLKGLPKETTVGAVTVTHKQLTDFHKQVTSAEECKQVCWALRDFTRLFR
Description: SPR; localized SPR (OpenSPR, Nicoya); His6-DNAJB1 fixed on Ni2+-charged NTA sensor, GST-TrnSR injected at varying concentrations; TB with 0.05% Tween-20 without EGTA, 20 uL/min; His6-CBX1 in the reference channel; one-to-one model. Particulars: both partners purified.

Test [2] addresses T2, GST-TrnSR-D750R/D751R (without mCherry) (human, UniProt Q9Y5L0 1-923, D750R | D751R).
T2 construct: transportin-SR (TrnSR), human cDNA in pGEX-6p3, double mutant; used in the LSPR experiment; source: E. coli BL21, purified (GSH-Sepharose 4B); not shown: GST, N-terminal, kept
T2 sequence (looked up): T1 sequence (looked up) with D750R, D751R
The description is as above. Particulars: both partners purified.

Our source for the Kd values is publication PMC8329185, “Distinct mutations in importin-β family nucleocytoplasmic transport receptors transportin-SR and importin-13 affect specific cargo binding” (Scientific Reports, 2021).

The term Kd denotes the free concentration of one partner at which half of the binding sites on the other are occupied at equilibrium, for simple one-to-one binding. Low values mean tighter binding, high ones weaker binding.

Substitutions are numbered along the chain they refer to.

B1: His6-DNAJB1 (natural protein, human)
chain: MGKDYYQTLGLARGASDEEIKRAYRRQALRYHPDKNKEPGAEEKFKEIAEAYDVLSDPRKREIFDRYGEEGLKGSGPSGGSGGGANGTSFSYTFHGDPHAMFAEFFGGRNPFDTFFGQRNGEEGMDIDDPFSGFPMGMGGFTNVNFGRSRSAQEPARKKQ[about 150 residues not printed]PERIPQTSRTVLEQVLPI
notes: DNAJB1, human (cDNA from a HeLa cDNA library); without GFP; fixed on the Ni-NTA sensor in LSPR; also called His6-tagged DNAJB1
As to B1, the values for the Kd in test [1] and in test [2] were roughly 7.4 nM and roughly 28 nM, respectively.
